{"source": "patent US20250064779A1", "about": "“COMPOSITIONS AND METHODS FOR THE TREATMENT OF DEPRESSION” (Janssen Pharmaceuticals, Inc., priority 2022, published 2025)", "tested_on": "subjects with MDD who have had an inadequate response to SSRI/SNRI treatment", "key": {"[1]": {"conditions": "eITT, low anhedonia (SHAPS >=20 and <38 at treatment baseline), Treatment Week 1"}, "[2]": {"conditions": "eITT, low anhedonia (SHAPS >=20 and <38 at treatment baseline), Treatment Week 3"}, "[3]": {"conditions": "eITT, low anhedonia (SHAPS >=20 and <38 at treatment baseline), Treatment Week 4"}, "[4]": {"conditions": "eITT, low anhedonia (SHAPS >=20 and <38 at treatment baseline), Treatment Week 5"}, "[5]": {"conditions": "eITT, low anhedonia (SHAPS >=20 and <38 at treatment baseline), Treatment Week 6"}, "[6]": {"conditions": "fITT, Treatment Week 3, 10 mg adjunctive to SSRI/SNRI"}, "[7]": {"conditions": "fITT, high anhedonia (SHAPS >=38 at treatment baseline), Treatment Week 1"}, "[8]": {"conditions": "fITT, high anhedonia (SHAPS >=38 at treatment baseline), Treatment Week 3"}, "[9]": {"conditions": "fITT, high anhedonia (SHAPS >=38 at treatment baseline), Treatment Week 4"}, "[10]": {"conditions": "fITT, high anhedonia (SHAPS >=38 at treatment baseline), Treatment Week 5"}, "[11]": {"conditions": "fITT, high anhedonia (SHAPS >=38 at treatment baseline), Treatment Week 6"}, "[12]": {"conditions": "fITT, low anhedonia (SHAPS >=20 and <38 at treatment baseline), Treatment Week 1"}, "[13]": {"conditions": "fITT, low anhedonia (SHAPS >=20 and <38 at treatment baseline), Treatment Week 3"}, "[14]": {"conditions": "fITT, low anhedonia (SHAPS >=20 and <38 at treatment baseline), Treatment Week 4"}, "[15]": {"conditions": "fITT, low anhedonia (SHAPS >=20 and <38 at treatment baseline), Treatment Week 5"}, "[16]": {"conditions": "fITT, low anhedonia (SHAPS >=20 and <38 at treatment baseline), Treatment Week 6"}}, "note": "“And” between values parts separate entries of the source, which are not always exact repeats. Equal entries are not always repeated. Where two headings read alike, the source gives them in different places.", "data": [{"smiles": "Cc1cc(C)cc(C2CCCN2Cc2ccc(Oc3ccc(C(N)=O)cc3F)cc2)c1", "note": "(stereo not shown) [aticaprant, 3-fluoro-4-4-2-(3,5-dimethylphenyl)pyrrolidin-1-yl-methylphenoxybenzamide]", "values": [{"measurement": "MADRS Total Score: Mean Change from Baseline (SD)", "setting": "[1]", "result": "−2.3 (5.03)"}, {"measurement": "MADRS Total Score: Mean Change to Placebo (SD pooled)", "setting": "[1]", "result": "−0.5 (4.30)"}, {"measurement": "MADRS Total Score: Effect size vs placebo", "setting": "[2]", "result": "−0.01"}, {"measurement": "MADRS Total Score: Mean Change from Baseline (SD)", "setting": "[2]", "result": "−4.9 (5.99)"}, {"measurement": "MADRS Total Score: Mean Change to Placebo (SD pooled)", "setting": "[2]", "result": "−0.1 (5.85)"}, {"measurement": "MADRS Total Score: Effect size vs placebo", "setting": "[3]", "result": 0.01}, {"measurement": "MADRS Total Score: Mean Change from Baseline (SD)", "setting": "[3]", "result": "−6.4 (7.40)"}, {"measurement": "MADRS Total Score: Mean Change to Placebo (SD pooled)", "setting": "[3]", "result": "0.0 (6.80)"}, {"measurement": "MADRS Total Score: Effect size vs placebo", "setting": "[4]", "result": 0.05}, {"measurement": "MADRS Total Score: Mean Change from Baseline (SD)", "setting": "[4]", "result": "−7.2 (6.46)"}, {"measurement": "MADRS Total Score: Mean Change to Placebo (SD pooled)", "setting": "[4]", "result": "0.3 (6.65)"}, {"measurement": "MADRS Total Score: Effect size vs placebo", "setting": "[5]", "result": "−0.11"}, {"measurement": "MADRS Total Score: Mean Change from Baseline (SD)", "setting": "[5]", "result": "−9.2 (8.01)"}, {"measurement": "MADRS Total Score: Mean Change to Placebo (SD pooled)", "setting": "[5]", "result": "−0.9 (8.13)"}, {"measurement": "onset of effect: significant treatment effect on MADRS vs placebo seen as early as", "setting": "fITT, FIG. 7B", "result": 3, "unit": "week"}, {"measurement": "MADRS Total Score: Mean Change to Placebo (SD pooled)", "setting": "fITT, Treatment Week 1, 10 mg adjunctive to SSRI/SNRI", "result": "−1.3 (4.43)"}, {"measurement": "MADRS Total Score: Change from Baseline LSMean (SE)", "setting": "fITT, Treatment Week 1, MMRM", "result": "−3.2"}, {"measurement": "MADRS Total Score: LSMean Difference (SE) Treatment-Placebo", "setting": "fITT, Treatment Week 1, MMRM", "result": "−1.6"}, {"measurement": "MADRS Total Score: Mean (SD)", "setting": "[6]", "result": 20.0}, {"measurement": "MADRS Total Score: Mean Change to Placebo (SD pooled)", "setting": "[6]", "result": "−1.7 (6.62)"}, {"measurement": "MADRS Total Score: Change from Baseline LSMean (SE)", "setting": "fITT, Treatment Week 3, MMRM", "result": "−5.2"}, {"measurement": "MADRS Total Score: LSMean Difference (SE) Treatment-Placebo", "setting": "fITT, Treatment Week 3, MMRM", "result": "−1.9"}, {"measurement": "MADRS Total Score: Mean Change to Placebo (SD pooled)", "setting": "fITT, Treatment Week 4, 10 mg adjunctive to SSRI/SNRI", "result": "−2.3 (7.02)"}, {"measurement": "MADRS Total Score: Change from Baseline LSMean (SE)", "setting": "fITT, Treatment Week 4, MMRM", "result": "−7.3"}, {"measurement": "MADRS Total Score: LSMean Difference (SE) Treatment-Placebo", "setting": "fITT, Treatment Week 4, MMRM", "result": "−2.5"}, {"measurement": "MADRS Total Score: Mean Change to Placebo (SD pooled)", "setting": "fITT, Treatment Week 5, 10 mg adjunctive to SSRI/SNRI", "result": "−1.9 (7.31)"}, {"measurement": "MADRS Total Score: Change from Baseline LSMean (SE)", "setting": "fITT, Treatment Week 5, MMRM", "result": "−8.7"}, {"measurement": "MADRS Total Score: LSMean Difference (SE) Treatment-Placebo", "setting": "fITT, Treatment Week 5, MMRM", "result": "−2.4"}, {"measurement": "MADRS Total Score: Mean Change to Placebo (SD pooled)", "setting": "fITT, Treatment Week 6, 10 mg adjunctive to SSRI/SNRI", "result": "−3.0 (8.31)"}, {"measurement": "MADRS Total Score: Change from Baseline LSMean (SE)", "setting": "fITT, Treatment Week 6, MMRM", "result": "−9.6 and −9.6 ± 0.79"}, {"measurement": "MADRS Total Score: LSMean Difference (SE) Treatment-Placebo", "setting": "fITT, Treatment Week 6, MMRM", "result": "−3.1"}, {"measurement": "MADRS total score: observed effect size", "setting": "fITT, Treatment Week 6, high anhedonia level", "result": 0.51}, {"measurement": "MADRS total score: difference between aticaprant and placebo", "setting": "fITT, Treatment Week 6, high anhedonia level, n=63", "result": "−4.6"}, {"measurement": "MADRS total score: observed effect size", "setting": "fITT, Treatment Week 6, low anhedonia level", "result": 0.29}, {"measurement": "MADRS total score: LSMeans difference estimate vs placebo, supplementary analysis (COVID-19 impact)", "setting": "fITT, data collected prior to 15 Mar. 2020, MMRM", "result": "−3.4"}, {"measurement": "MADRS Total Score: Effect size vs placebo", "setting": "[7]", "result": "−0.45"}, {"measurement": "MADRS Total Score: Mean Change from Baseline (SD)", "setting": "[7]", "result": "−4.4 (5.04)"}, {"measurement": "MADRS Total Score: Mean Change to Placebo (SD pooled)", "setting": "[7]", "result": "−2.0 (4.38)"}, {"measurement": "MADRS Total Score: Effect size vs placebo", "setting": "[8]", "result": "−0.54"}, {"measurement": "MADRS Total Score: Mean Change from Baseline (SD)", "setting": "[8]", "result": "−6.9 (6.66)"}, {"measurement": "MADRS Total Score: Mean Change to Placebo (SD pooled)", "setting": "[8]", "result": "−3.8 (6.94)"}, {"measurement": "MADRS Total Score: Effect size vs placebo", "setting": "[9]", "result": "−0.50"}, {"measurement": "MADRS Total Score: Mean Change from Baseline (SD)", "setting": "[9]", "result": "−8.6 (7.32)"}, {"measurement": "MADRS Total Score: Mean Change to Placebo (SD pooled)", "setting": "[9]", "result": "−3.8 (7.56)"}, {"measurement": "MADRS Total Score: Effect size vs placebo", "setting": "[10]", "result": "−0.51"}, {"measurement": "MADRS Total Score: Mean Change from Baseline (SD)", "setting": "[10]", "result": "−10.2 (8.04)"}, {"measurement": "MADRS Total Score: Effect size vs placebo", "setting": "[11]", "result": "−0.51"}, {"measurement": "MADRS Total Score: Mean Change from Baseline (SD)", "setting": "[11]", "result": "−11.3 (8.69)"}, {"measurement": "MADRS Total Score: Mean Change to Placebo (SD pooled)", "setting": "[11]", "result": "−4.6 (9.03)"}, {"measurement": "MADRS Total Score: Effect size vs placebo", "setting": "[12]", "result": "−0.24"}, {"measurement": "MADRS Total Score: Mean Change from Baseline (SD)", "setting": "[12]", "result": "−2.4 (4.59)"}, {"measurement": "MADRS Total Score: Mean Change to Placebo (SD pooled)", "setting": "[12]", "result": "−1.0 (4.39)"}, {"measurement": "MADRS Total Score: Effect size vs placebo", "setting": "[13]", "result": "−0.08"}, {"measurement": "MADRS Total Score: Mean Change from Baseline (SD)", "setting": "[13]", "result": "−4.1 (6.67)"}, {"measurement": "MADRS Total Score: Mean Change to Placebo (SD pooled)", "setting": "[13]", "result": "−0.5 (6.37)"}, {"measurement": "MADRS Total Score: Effect size vs placebo", "setting": "[14]", "result": "−0.23"}, {"measurement": "MADRS Total Score: Mean Change from Baseline (SD)", "setting": "[14]", "result": "−6.4 (6.77)"}, {"measurement": "MADRS Total Score: Mean Change to Placebo (SD pooled)", "setting": "[14]", "result": "−1.5 (6.65)"}, {"measurement": "MADRS Total Score: Effect size vs placebo", "setting": "[15]", "result": "−0.10"}, {"measurement": "MADRS Total Score: Mean Change from Baseline (SD)", "setting": "[15]", "result": "−7.3 (6.90)"}, {"measurement": "MADRS Total Score: Mean Change to Placebo (SD pooled)", "setting": "[15]", "result": "−0.7 (6.86)"}, {"measurement": "MADRS Total Score: Effect size vs placebo", "setting": "[16]", "result": "−0.29"}, {"measurement": "MADRS Total Score: Mean Change from Baseline (SD)", "setting": "[16]", "result": "−8.8 (7.48)"}, {"measurement": "MADRS Total Score: Mean Change to Placebo (SD pooled)", "setting": "[16]", "result": "−2.3 (7.80)"}]}]}
